Source: the supplement of paper PMC3724861
This is one part of the list.

test system: T1, Caupolican (Caup) homeodomain DNA-binding domain; assay: PBM E-score (8-mer, recovered from the published 9-mer minima) (E-score (dimensionless, -0.5 to 0.5)); Drosophila protein; higher = stronger relative binding preference, active = 0.31 or more
T1 sequence: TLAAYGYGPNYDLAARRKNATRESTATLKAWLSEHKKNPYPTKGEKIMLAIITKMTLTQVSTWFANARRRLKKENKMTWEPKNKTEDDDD
Method: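 Protein binding microarray (PBM): in vitro transcribed/translated Caupolican (Caup) homeodomain DNA-binding domain (residues 214-303) applied at 100 nM to a universal 8-mer PBM array (Agilent AMADID 015681). The 8-mer enrichment score (E-score, range -0.5 to 0.5) was computed, and each 9-mer score is the minimum E-score of its two constituent 8-mers. The E-score is the same for a 9-mer and its reverse complement; 0.31 is the stated binding threshold.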

PBM E-score, ≥ -0.0561:
AGGGGCAT

PBM E-score, ≥ 0.277:
TACAAATA

PBM E-score, ≥ -0.00227:
ATTGGCGA

PBM E-score, inactive:
GCGCGACC -0.141
CAGAAGGA -0.156
CCGTATGC -0.225
CATGTGAG 0.173
GCGATAAC -0.00824
AAAAACCA 0.137
GACGACGA -0.0012
GGAAATCC -0.0738
CGAACTAA -0.0144
CGCCTGCA -0.165
ACGGACTG 0.0627
GGTATTAA 0.0311
AGACTGAG -0.112
CGGACCAC -0.0715
AAAGTTAC 0.196
AAAGACAT 0.205
AGCCCGCT -0.225
ATACGTCG 0.0317
CGACCATA -0.00194
AAAGGATC -0.0619
CGTCATCC -0.0703
CCTGATCA -0.0297
ATAACCCG -0.0738
AACGATAA 0.117
CATTACGA 0.106
CCTGGGAA -0.0649
ACGGTCAA 0.0687
CCGATTCG -0.0306
CTCGCAAA -0.00423
GTCCCTAA -0.0722
GACTGTAC 0.141
CACCATCG -0.137
ACCCTCTC -0.164
GCACAAAA 0.0105
CCTCTAAA -0.1
AGCATCTC -0.00696
GCCTTGCA -0.0717
ATAAAGGG -0.0932
ACAATGCC 0.0425
AGCAGAGC -0.153
AGGACGTC -0.105
AATCACCT 0.124
AGAGCGGA -0.0462
GTTTAGGA -0.0322
ACCAGTAG 0.0693
CTTGGATA 0.0623
AAGGGTCT -0.168
CGCCACCG -0.205
CAAATCCA 0.0551
CTGTACGA 0.203
AGTGTGAG -0.0213
CATGGTTA 0.173
CGAACCCA -0.0798
AAACTCTC -0.0677
ATCTCATC 0.0647
AGCCTCAT -0.0641
AAGGACTT -0.0542
GTCCTTCA 0.0485
